This list holds what a sample rich in highest values left over.
system: 786-O; assay: Euclidean distance of Cell Painting phenotypic profile (signed KS, 77 features) to DMSO centroid (dimensionless distance); higher = stronger phenotypic change vs DMSO (phenoactivity); details: 48 h; 5 or 10 uM (library dependent)
Procedure, shortened: (§1)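 Phenoactivity is defined as the Euclidean distance from a compound profile to the median vehicle profile. Each profile comprised 77 Harmony features, scored as signed Kolmogorov-Smirnov statistics versus same-plate vehicle wells, then plate-position corrected, correlation-weighted and replicate-averaged at the top dose. Five cancer lines and one healthy fibroblast line were exposed to library compounds for 48 h at 10 or 5 uM (0.1% DMSO final).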

Structure (SMILES)	Euclidean distance
CCC(C)C(C(=O)OCC[N+](C)(CC)CC)c1ccccc1 (stereo not given) [Valethamate Bromide]	1.13
Cc1ccc(C(=O)NCCCCCC(=O)Nc2ccccc2N)cc1	1.71
Cc1ccccc1-n1c(Cn2nc(-c3cccc(O)c3)c3c(N)ncnc32)nc2cccc(C)c2c1=O	0.964
CCOc1cc(NC(C)=O)ccc1C(=O)OC [Ethopabate]	1.04
CN1C2CCC1CC(OC(=O)C(O)c1ccccc1)C2 (stereo not given) [Homatropine Bromide]	1.09

system: A549; assay: as above; details: 48 h; 5 or 10 uM (library dependent)
Procedure, shortened: as §1

Structure (SMILES)	Euclidean distance
CCC(C)C(C(=O)OCC[N+](C)(CC)CC)c1ccccc1 (stereo not given) [Valethamate Bromide]	0.876
Cc1ccc(C(=O)NCCCCCC(=O)Nc2ccccc2N)cc1	2.11
Cc1ccccc1-n1c(Cn2nc(-c3cccc(O)c3)c3c(N)ncnc32)nc2cccc(C)c2c1=O	0.952
CCOc1cc(NC(C)=O)ccc1C(=O)OC [Ethopabate]	1.63
CN1C2CCC1CC(OC(=O)C(O)c1ccccc1)C2 (stereo not given) [Homatropine Bromide]	1.04

system: DU145; assay: as above; details: 48 h; 5 or 10 uM (library dependent)
Procedure, shortened: as §1

Structure (SMILES)	Euclidean distance
CCC(C)C(C(=O)OCC[N+](C)(CC)CC)c1ccccc1 (stereo not given) [Valethamate Bromide]	0.854
Cc1ccc(C(=O)NCCCCCC(=O)Nc2ccccc2N)cc1	2.07
Cc1ccccc1-n1c(Cn2nc(-c3cccc(O)c3)c3c(N)ncnc32)nc2cccc(C)c2c1=O	0.96
CCOc1cc(NC(C)=O)ccc1C(=O)OC [Ethopabate]	1.66
CN1C2CCC1CC(OC(=O)C(O)c1ccccc1)C2 (stereo not given) [Homatropine Bromide]	0.903

system: FB; assay: as above; details: 48 h; 5 or 10 uM (library dependent)
Procedure, shortened: as §1

Structure (SMILES)	Euclidean distance
CCC(C)C(C(=O)OCC[N+](C)(CC)CC)c1ccccc1 (stereo not given) [Valethamate Bromide]	1.06
Cc1ccc(C(=O)NCCCCCC(=O)Nc2ccccc2N)cc1	2.99
Cc1ccccc1-n1c(Cn2nc(-c3cccc(O)c3)c3c(N)ncnc32)nc2cccc(C)c2c1=O	1.61
CCOc1cc(NC(C)=O)ccc1C(=O)OC [Ethopabate]	1.46
CN1C2CCC1CC(OC(=O)C(O)c1ccccc1)C2 (stereo not given) [Homatropine Bromide]	0.778

system: HEPG2; assay: as above; details: 48 h; 5 or 10 uM (library dependent)
Procedure, shortened: as §1

Structure (SMILES)	Euclidean distance
CCC(C)C(C(=O)OCC[N+](C)(CC)CC)c1ccccc1 (stereo not given) [Valethamate Bromide]	0.932
Cc1ccc(C(=O)NCCCCCC(=O)Nc2ccccc2N)cc1	2.54
Cc1ccccc1-n1c(Cn2nc(-c3cccc(O)c3)c3c(N)ncnc32)nc2cccc(C)c2c1=O	1.17
CCOc1cc(NC(C)=O)ccc1C(=O)OC [Ethopabate]	0.781
CN1C2CCC1CC(OC(=O)C(O)c1ccccc1)C2 (stereo not given) [Homatropine Bromide]	0.624
